The text below walks through data of the supplement of paper PMC10338343.

± gives the standard deviation. This is a selection; strong and weak results do not stand in their true shares.

In one experiment the test system is MIWI (PIWIL1) piRISC loaded with L1MC piRNA (30 nt). As to the kind of experiment: pre-steady-state target cleavage rate (min^-1); MIWI and MILI are mouse PIWI proteins and EfPiwi is from a freshwater sponge; tags in brackets are library labels; higher = faster piRNA-guided slicing of the target. The following applies: guide: L1MC piRNA 5'p-UAACUAAAUACUAUGCAAGCUGUAGGUCCU; auxiliary factor: 500 nM mouse GTSF1. Here is the method:
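Cleave-'n-Seq: a library of target RNAs (target site embedded in constant flanks, ACAGCATTCCGCGTTAGTGATATCCG... 5' flank; DNA-blocked outside the site) at 0.1 nM was incubated with 1 nM active mouse MILI or MIWI piRISC (synthetic 5'-monophosphorylated piRNA guide) with or without 500 nM mouse GTSF1 at 33 °C for 1 min to 16 h. Uncleaved targets were sequenced and normalised to non-target controls, and the pooled three trials were fitted to a burst-and-steady-state model to give the pre-steady-state cleavage rate (min^-1; k3 is constrained to at most 1e-4). Sequence is the target site only; target names encode pairing extent (gX:gY) and contiguous / 1-mismatch / 2-mismatch / bulge geometry. Fits with R² ≤ 0 are excluded.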
In the case of UGGACCUUGAGCUUGCAUAGUAUUUACAAA, the “pre-steady-state target cleavage rate” value is 0.168 ± 0.028. Still for that read-out and setting: in the case of AGGACCUACAGCUUGCAUAGUAUUUACUUA it was 0.41 ± 0.043. As for UGGACCUACACCUUGCAUAGUAUUUUCAAA, the “pre-steady-state target cleavage rate” value stood at 0.327 ± 0.05.

On to UGGACCAACAGCUUGGAUAGUAUUUAGUUA, for which the “pre-steady-state target cleavage rate” value was 1.49 ± 0.054.

As for UCCUGCUACAGCUUGCAUAGUAUCUUAGUUA, the “pre-steady-state target cleavage rate” value was determined as 0.763 ± 0.061. Still for that read-out and setting: in the case of UCCUGGAAGUGCUUGCAUAGUAUUUAGUAA it was 0.225 ± 0.03; in that of UCCUGGAACAGCUUGCAUAGUAUUUACUUA, 0.224 ± 0.021. AGGACCUACAAGCUUGCAUAGUAUUUAGUUA: the “pre-steady-state target cleavage rate” value is 1.06 ± 0.048. The same measure, in the same setting: in the case of AGGACCAACAGCUUGCAUAGUAUUUACUUA it was 0.29 ± 0.027; in that of UCCUGGAUGUCCUGUGCAUAGUAUUUAGUUA, 0.0103 ± 0.0044; in that of UCCUGGUACAGCUUGCAUAGUAUUAAGAUA, 0.153 ± 0.037. On to UGGACCUACAGCUUGCAUAGUUAUUUCAAA, for which the “pre-steady-state target cleavage rate” value was determined as 0.0192 ± 0.009. On the same count and under the same terms, as for UCGAACUACAGCUUGCAUAGUAUUUAGUUA, the figure is 1.39 ± 0.049. The same measure, in the same setting: as for UGGACCAACAGCUUGCAUACUAUUUAGUUA, the figure is 0.419 ± 0.017. Same read-out and setting: as for UCCUGGUACAGCUUGCAAAGUAUUUAGAUA, the figure is 0.249 ± 0.034. Take AGCACCUACAGCUUGCAUAGUAUUUAGUAA: the “pre-steady-state target cleavage rate” value came to 0.974 ± 0.12. Still for that read-out and setting: in the case of UCCUGGAACAGCUUGCAUAGUAUUUACGUUA it was 0.57 ± 0.038. The same measure, in the same setting: as for UCCUGGAUCAGCUUGACAUAGUAUUUAGUUA, the figure is 0.384 ± 0.026; as for UCGACCUACACCUUGCAUAGUAUUUUGUUA, 0.618 ± 0.081. AGGACCUUCAGCUUGCAUAGUAUUAAGUUA: the “pre-steady-state target cleavage rate” value was 0.715 ± 0.058.

The same experiment, now with this note: guide: L1MC piRNA 5'p-UAACUAAAUACUAUGCAAGCUGUAGGUCCU; auxiliary factor: none (no GTSF1).
As to UGGACCUUGAGCUUGCAUAGUAUUUACAAA, the “pre-steady-state target cleavage rate” value was determined as 0.00517 ± 0.0025. Take AGGACCUACAGCUUGCAUAGUAUUUACUUA: the “pre-steady-state target cleavage rate” value was 0.0548 ± 0.011. Still for that read-out and setting: as for UGGACCUACACCUUGCAUAGUAUUUUCAAA, the figure is 0.00389 ± 0.0023. Same read-out and setting: in the case of UGGACCAACAGCUUGGAUAGUAUUUAGUUA it was 0.0691 ± 0.011. The same measure, in the same setting: as for UCCUGCUACAGCUUGCAUAGUAUCUUAGUUA, the figure is 0.0147 ± 0.003; as for UCCUGGAAGUGCUUGCAUAGUAUUUAGUAA, 0.0148 ± 0.0051; as for UCCUGGAACAGCUUGCAUAGUAUUUACUUA, 0.0379 ± 0.0065. Turning to AGGACCUACAAGCUUGCAUAGUAUUUAGUUA, the “pre-steady-state target cleavage rate” value worked out at 0.0862 ± 0.018. Consider AGGACCAACAGCUUGCAUAGUAUUUACUUA, for which the “pre-steady-state target cleavage rate” value amounted to 0.0456 ± 0.0073. Still for that read-out and setting: in the case of UCCUGGAUGUCCUGUGCAUAGUAUUUAGUUA it was 0.00389 ± 0.0034; in that of UCCUGGUACAGCUUGCAUAGUAUUAAGAUA, 0.00342 ± 0.0022.

Turning to UCGAACUACAGCUUGCAUAGUAUUUAGUUA, the “pre-steady-state target cleavage rate” value amounted to 0.0698 ± 0.011. Same read-out and setting: in the case of UGGACCAACAGCUUGCAUACUAUUUAGUUA it was 0.0377 ± 0.0075; in that of UCCUGGUACAGCUUGCAAAGUAUUUAGAUA, 0.0146 ± 0.004. Same read-out and setting: in the case of AGCACCUACAGCUUGCAUAGUAUUUAGUAA it was 0.197 ± 0.062; in that of UCCUGGAACAGCUUGCAUAGUAUUUACGUUA, 0.0419 ± 0.0079; in that of UCCUGGAUCAGCUUGACAUAGUAUUUAGUUA, 0.00499 ± 0.0024. UCGACCUACACCUUGCAUAGUAUUUUGUUA: the “pre-steady-state target cleavage rate” value was determined as 0.0282 ± 0.0042. Consider AGGACCUUCAGCUUGCAUAGUAUUAAGUUA, for which the “pre-steady-state target cleavage rate” value came out at 0.0546 ± 0.01.
